{"source": "the supplement of paper PMC8728848", "test_in_all_cases": "glycan array binding signal (z-score within array); higher = stronger binding", "settings_in_all_cases": "glycan notation: IUPAC condensed, linker removed", "key": {"[1]": {"target": "Gal(b1-4)GlcNAc(b1-3)Gal(b1-4)GlcNAc(b1-3)[Gal(b1-4)GlcNAc(b1-3)Gal(b1-4)GlcNAc(b1-6)]GalNAc", "in_short": "(§1)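 Columns mapping to the same glycan were averaged after glycan names were converted to IUPAC-condensed notation. The data come from 3228 arrays in the Consortium for Functional Glycomics database, limited to those with an available protein sequence. Binding is reported as a within-array Z-score averaged across arrays of one protein sequence and across linkers.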"}, "[2]": {"target": "Gal(b1-4)GlcNAc(b1-3)Gal(b1-4)GlcNAc(b1-6)[Gal(b1-3)]GalNAc", "in_short": "as §1"}, "[3]": {"target": "Gal(b1-4)GlcNAc(b1-3)Gal(b1-4)[Fuc(a1-3)]GlcNAc(b1-3)Gal(b1-4)[Fuc(a1-3)]GlcNAc", "in_short": "as §1"}, "[4]": {"target": "Gal(b1-4)GlcNAc(b1-3)GalNAc", "in_short": "as §1"}, "[5]": {"target": "Gal(b1-4)GlcNAc(b1-3)[Fuc(a1-3)GlcNAc(b1-6)]Gal(b1-4)Glc", "in_short": "as §1"}, "[6]": {"target": "Gal(b1-4)GlcNAc(b1-3)[Gal(b1-4)GlcNAc(b1-6)]Gal(b1-4)GlcNAc", "in_short": "as §1"}, "[7]": {"target": "Gal(b1-4)GlcNAc(b1-3)[GlcNAc(b1-6)]Gal(b1-4)GlcNAc", "in_short": "as §1"}, "[8]": {"target": "Gal(b1-4)GlcNAc(b1-6)Gal(b1-4)GlcNAc", "in_short": "as §1"}, "[9]": {"target": "Gal(b1-4)GlcNAc(b1-6)GalNAc", "in_short": "as §1"}, "[10]": {"target": "Gal(b1-4)GlcNAc(b1-6)[Gal(b1-3)]GalNAc", "in_short": "as §1"}, "[11]": {"target": "Gal(b1-4)GlcNAc(b1-6)[Gal(b1-4)GlcNAc(b1-3)]GalNAc", "in_short": "as §1"}, "Gal(b1-4)GlcNAc6P": {"target": "Gal(b1-4)GlcNAc6P", "in_short": "as §1"}, "Gal(b1-6)Gal": {"target": "Gal(b1-6)Gal", "in_short": "as §1"}, "Gal3S(b1-3)GalNAc": {"target": "Gal3S(b1-3)GalNAc", "in_short": "as §1"}, "Gal3S(b1-3)GlcNAc": {"target": "Gal3S(b1-3)GlcNAc", "in_short": "as §1"}, "[12]": {"target": "Gal3S(b1-3)[Fuc(a1-4)]GlcNAc", "in_short": "as §1"}, "Gal3S(b1-4)Glc": {"target": "Gal3S(b1-4)Glc", "in_short": "as §1"}, "Gal3S(b1-4)Glc6S": {"target": "Gal3S(b1-4)Glc6S", "in_short": "as §1"}, "Gal3S(b1-4)GlcNAc": {"target": "Gal3S(b1-4)GlcNAc", "in_short": "as §1"}, "[13]": {"target": "Gal3S(b1-4)[Fuc(a1-3)]Glc6S", "in_short": "as §1"}, "[14]": {"target": "Gal3S(b1-4)[Fuc(a1-3)]GlcNAc", "in_short": "as §1"}, "[15]": {"target": "Gal3S(b1-4)[Fuc(a1-3)]GlcNAc6S", "in_short": "as §1"}, "Gal3S4S(b1-4)GlcNAc": {"target": "Gal3S4S(b1-4)GlcNAc", "in_short": "as §1"}, "Gal3S6S(b1-4)GlcNAc": {"target": "Gal3S6S(b1-4)GlcNAc", "in_short": "as §1"}, "Gal3S6S(b1-4)GlcNAc6S": {"target": "Gal3S6S(b1-4)GlcNAc6S", "in_short": "as §1"}, "Gal4S(b1-4)GlcNAc": {"target": "Gal4S(b1-4)GlcNAc", "in_short": "as §1"}, "Gal4S6S(b1-4)GlcNAc": {"target": "Gal4S6S(b1-4)GlcNAc", "in_short": "as §1"}, "Gal6P(b1-4)GlcNAc": {"target": "Gal6P(b1-4)GlcNAc", "in_short": "as §1"}, "Gal6S(b1-3)GlcNAc": {"target": "Gal6S(b1-3)GlcNAc", "in_short": "as §1"}, "Gal6S(b1-3)GlcNAc6S": {"target": "Gal6S(b1-3)GlcNAc6S", "in_short": "as §1"}, "Gal6S(b1-4)Glc": {"target": "Gal6S(b1-4)Glc", "in_short": "as §1"}, "Gal6S(b1-4)Glc6S": {"target": "Gal6S(b1-4)Glc6S", "in_short": "as §1"}, "Gal6S(b1-4)GlcNAc": {"target": "Gal6S(b1-4)GlcNAc", "in_short": "as §1"}, "Gal6S(b1-4)GlcNAc6S": {"target": "Gal6S(b1-4)GlcNAc6S", "in_short": "as §1"}, "GalNAc(a1-3)Gal": {"target": "GalNAc(a1-3)Gal", "in_short": "as §1"}, "GalNAc(a1-3)GalNAc": {"target": "GalNAc(a1-3)GalNAc", "in_short": "as §1"}, "[16]": {"target": "GalNAc(a1-3)GalNAc(b1-3)Gal(a1-4)Gal(b1-4)Glc", "in_short": "as §1"}}, "note": "This is one part of the list."}
{"binder": "Als3-N (Candida albicans) (protein) KTITGVFNSFNSLTWSNAATYNYKGPGTPTWNAVLGWSLDGTSASPGDTFTLNMPCVFKFTTSQTSVDLTAHGVKYATCQFQAGEEFMTFSTLTCTVSNTLTPSIKALGTVTLPLAFNVGGTGSSVDLEDSKCFTAGTNTVTFNDGGKKISINVDFERSNVDPKGYLTDSRVIPSLNKVSTLFVAPQCANGYTSGTMGFANTYGDVQIDCSNIHVGITKGLNDWNYPVSSESFSYTKTCSSNGIFITYKNVPAGYRPFVDAYISATDVNSYTLSYANEYTCAGGYWQRAPFTLRWTGYRNSDAGSNGIVIVATTRTVTDSTTAVTTLPFDPNRDKTKTIEILKPIPTTTITTSYVGVTTSYLTKTAPIGETATVIVDIPYHTTTTVTSKWTGTITSTTTHTNPTDSIDTVIVQVP", "values": [{"measurement": "glycan array binding signal (z-score)", "setting": "[1]", "result": 1.05}, {"measurement": "glycan array binding signal (z-score)", "setting": "[2]", "result": 0.43}, {"measurement": "glycan array binding signal (z-score)", "setting": "[3]", "result": -0.321}, {"measurement": "glycan array binding signal (z-score)", "setting": "[4]", "result": -0.27}, {"measurement": "glycan array binding signal (z-score)", "setting": "[5]", "result": -0.243}, {"measurement": "glycan array binding signal (z-score)", "setting": "[6]", "result": 0.09}, {"measurement": "glycan array binding signal (z-score)", "setting": "[7]", "result": -0.129}, {"measurement": "glycan array binding signal (z-score)", "setting": "[8]", "result": -0.106}, {"measurement": "glycan array binding signal (z-score)", "setting": "[9]", "result": -0.09}, {"measurement": "glycan array binding signal (z-score)", "setting": "[10]", "result": -0.219}, {"measurement": "glycan array binding signal (z-score)", "setting": "[11]", "result": -0.067}, {"measurement": "glycan array binding signal (z-score)", "setting": "Gal(b1-4)GlcNAc6P", "result": -0.299}, {"measurement": "glycan array binding signal (z-score)", "setting": "Gal(b1-6)Gal", "result": -0.155}, {"measurement": "glycan array binding signal (z-score)", "setting": "Gal3S(b1-3)GalNAc", "result": -0.254}, {"measurement": "glycan array binding signal (z-score)", "setting": "Gal3S(b1-3)GlcNAc", "result": -0.068}, {"measurement": "glycan array binding signal (z-score)", "setting": "[12]", "result": -0.039}, {"measurement": "glycan array binding signal (z-score)", "setting": "Gal3S(b1-4)Glc", "result": -0.25}, {"measurement": "glycan array binding signal (z-score)", "setting": "Gal3S(b1-4)Glc6S", "result": -0.166}, {"measurement": "glycan array binding signal (z-score)", "setting": "Gal3S(b1-4)GlcNAc", "result": -0.188}, {"measurement": "glycan array binding signal (z-score)", "setting": "[13]", "result": 0.799}, {"measurement": "glycan array binding signal (z-score)", "setting": "[14]", "result": -0.241}, {"measurement": "glycan array binding signal (z-score)", "setting": "[15]", "result": -0.215}, {"measurement": "glycan array binding signal (z-score)", "setting": "Gal3S4S(b1-4)GlcNAc", "result": -0.088}, {"measurement": "glycan array binding signal (z-score)", "setting": "Gal3S6S(b1-4)GlcNAc", "result": -0.146}, {"measurement": "glycan array binding signal (z-score)", "setting": "Gal3S6S(b1-4)GlcNAc6S", "result": -0.089}, {"measurement": "glycan array binding signal (z-score)", "setting": "Gal4S(b1-4)GlcNAc", "result": -0.268}, {"measurement": "glycan array binding signal (z-score)", "setting": "Gal4S6S(b1-4)GlcNAc", "result": -0.043}, {"measurement": "glycan array binding signal (z-score)", "setting": "Gal6P(b1-4)GlcNAc", "result": -0.315}, {"measurement": "glycan array binding signal (z-score)", "setting": "Gal6S(b1-3)GlcNAc", "result": -0.057}, {"measurement": "glycan array binding signal (z-score)", "setting": "Gal6S(b1-3)GlcNAc6S", "result": -0.216}, {"measurement": "glycan array binding signal (z-score)", "setting": "Gal6S(b1-4)Glc", "result": -0.186}, {"measurement": "glycan array binding signal (z-score)", "setting": "Gal6S(b1-4)Glc6S", "result": -0.074}, {"measurement": "glycan array binding signal (z-score)", "setting": "Gal6S(b1-4)GlcNAc", "result": -0.293}, {"measurement": "glycan array binding signal (z-score)", "setting": "Gal6S(b1-4)GlcNAc6S", "result": -0.275}, {"measurement": "glycan array binding signal (z-score)", "setting": "GalNAc(a1-3)Gal", "result": 0.149}, {"measurement": "glycan array binding signal (z-score)", "setting": "GalNAc(a1-3)GalNAc", "result": -0.159}, {"measurement": "glycan array binding signal (z-score)", "setting": "[16]", "result": -0.271}]}
